From patent US11155596B2, “Polypeptide” (AFFIBODY AB, priority 2016, dated 2021)
Read-outs that look alike come from different tables or passages of the source.

Tests used:
[1] = Circular dichroism (CD) spectroscopy, variable temperature measurement; assay type: physicochemical; details: His6-tagged Z variants in PBS; VTM to 80° C.
Description: Circular dichroism (CD) spectroscopy analysis: Two purified Z variants with a C-terminal cysteine, Z15168-Cys (SEQ ID NO:809) and Z15169-Cys (SEQ ID NO:810), were diluted to 0.5 mg/ml in 20 mM HEPES, 1 mM EDTA, pH 7.2. For each diluted Z variant, a CD spectrum at 250-195 nm was obtained at 20° C. In addition, a variable temperature measurement (VTM) was performed to determine the melting temperature (Tm). In the VTM, the absorbance was measured at 221 nm while the temperature was raised from 20 to 90° C., with a temperature slope of 5° C./min. A new CD spectrum was obtained at 20° C. after the heating procedure in order to study the refolding ability of the Z variants. The CD measurements were performed on a Jasco J-810 spectropolarimeter (Jasco Scandinavia AB) using a cell with an optical path length of 1 mm.
Circular dichroism (CD) spectroscopy analysis: A subset of the purified Hiss-tagged Z variants were analyzed by CD spectroscopy as described in Example 3, but with the exceptions that the analysis buffer was PBS and that the temperature was raised to 80° C. in the VTM.

hPD-L1 binding to hPD-1 = target: T1, hPD-L1 binding to hPD-1 (Homo sapiens, UniProt Q9NZQ7); experiment: AlphaLISA blocking assay (Example 7); details: His6-tagged Z variants 250 nM to 4 pM; 8 nM biotinylated hPD-L1; read-out: IC50 AlphaLISA (M), blocking the PD-1/PD-L1 interaction
T1 construct: 1086-PD-050 (hPD-1)
T1 sequence (Q9NZQ7 19-239 limits assumed): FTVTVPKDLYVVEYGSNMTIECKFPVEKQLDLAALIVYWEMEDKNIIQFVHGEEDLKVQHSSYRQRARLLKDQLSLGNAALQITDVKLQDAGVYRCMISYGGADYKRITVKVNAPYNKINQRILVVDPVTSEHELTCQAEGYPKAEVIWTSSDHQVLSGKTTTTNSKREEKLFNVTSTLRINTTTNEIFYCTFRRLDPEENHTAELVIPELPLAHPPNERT
Description: AlphaLISA blocking assay: The potential of Z variants to inhibit binding of PD-L1 to PD-1 was analyzed by AlphaLISA and recordings in an EnSpire multiplate reader 2300 (Perkin Elmer). hPD-1 (human PD-1 Fc-chimera; R&D Systems, cat. no. 1086-PD-050) was immobilized on AlphaLISA Acceptor beads (Perkin Elmer, cat. no. 6772002) according to the manufacturer's recommendations. […] Finally, streptavidin coated Donor beads (Perkin Elmer, cat. no. 6772002) were added to a final concentration of 40 μg/ml and incubated for 30 min. All incubations were performed at RT in the dark. The plate was analyzed in the EnSpire instrument and the IC50 values were calculated using GraphPad Prism 5.
Exception 2: hPD-1-coated Acceptor beads were added to a final concentration of 10 μg/ml and incubated for 50 min.

hPD-L1 = hPD-L1 (Homo sapiens, UniProt Q9NZQ7); experiment: Biacore kinetic analysis of maturated Z variants, hPD-L1; assay type: binding
Sequence of hPD-L1 (Q9NZQ7 19-290): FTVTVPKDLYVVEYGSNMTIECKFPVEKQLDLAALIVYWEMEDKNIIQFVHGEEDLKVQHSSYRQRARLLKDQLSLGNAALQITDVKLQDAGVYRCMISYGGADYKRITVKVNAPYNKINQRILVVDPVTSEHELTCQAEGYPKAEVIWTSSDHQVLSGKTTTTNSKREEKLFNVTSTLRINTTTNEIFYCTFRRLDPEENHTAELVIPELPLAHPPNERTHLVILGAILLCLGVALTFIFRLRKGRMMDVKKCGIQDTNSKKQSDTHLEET
Description: (§1) hPD-L1, hPD-L2, hB7-H3, hB7-H4 and mPD-L1 were immobilized in separate flow cells on the carboxylated dextran layer of different CM5 chip surfaces (GE Healthcare, cat. no. BR100012). The immobilization was performed using amine coupling chemistry according to the manufacturer's protocol and using HBS-EP as running buffer (0.01 M HEPES pH 7.4, 0.15 M NaCl, 3 mM EDTA, 0.005% v/v Surfactant P20, GE Healthcare, cat. no. BR100188). […] One flow cell surface on each chip was activated and deactivated for use as blank during analyte injections. In the kinetic experiment, HBS-EP was used as running buffer and the flow rate was 50 μl/min. The analytes, i.e. the Z variants, were each diluted in HBS-EP buffer within a concentration range of 1000 to 0.01 nM and injected for 5 min, followed by dissociation in running buffer for 15-25 min. After dissociation, the surfaces were regenerated with one or two injections of 0.1% SDS. Kinetic constants were calculated from the sensorgrams using the Langmuir 1:1 model of BiaEvaluation software 4.1 (GE Healthcare).
(§2) Biacore kinetic and specificity analysis: Kinetic constants (ka and kd) and affinities (KD) for human PD-L1 and rhesus monkey PD-L1 (RhPD-L1; rhesus PD-L1/Fc Chimera, Sino Biological Inc., cat. no. 90251-C02H) were determined for 24 matured Hiss-tagged Z variants (specified in Example 6). The Z variants were also tested for binding against the sequence-related proteins hPD-L2, hB7-H3 and hB7-H4. The Biacore analyses were performed essentially as described in Example 3, however a flow rate of 30 μl/min was used. […] In a first binding kinetic analysis, the 24 Z variants were injected at concentrations of 5 and 50 nM over chips immobilized with hPD-L1 and RhPD-L1, respectively. […] In the specificity test, i.e. the binding analysis against hPD-L2, hB7-H3 and hB7-H4, the 24 Z variants were injected at a concentration of 500 nM.

RhPD-L1 = experiment: Biacore kinetic analysis of maturated Z variants, RhPD-L1; assay type: binding, rhesus monkey
Description: as §1, §2

[2] = His6-tagged Z variants at 135, 45, 15, 5 and 1.67 nM
[3] = His6-tagged Z variants at 135, 45, 15, 5 and 1.67 nM, read-out: hPD-L1 KD
[4] = ranking experiment, His6-tagged Z variants at 5 and 50 nM, 1:1 model, read-out: hPD-L1 KD (M), approximate affinity constant
[5] = His6-tagged Z variants at 135, 45, 15, 5 and 1.67 nM, read-out: RhPD-L1 KD
[6] = ranking experiment, His6-tagged Z variants at 5 and 50 nM, 1:1 model, read-out: RhPD-L1 KD (M), approximate affinity constant

Substance	Tm (° C.) [1]	IC50 (hPD-L1 binding to hPD-1)	hPD-L1 ka (hPD-L1; [2])	hPD-L1 kd (hPD-L1; [2])	Kd (hPD-L1; [3])	Kd (hPD-L1; [4])	RhPD-L1 ka (RhPD-L1; [2])	RhPD-L1 kd (RhPD-L1; [2])	Kd (RhPD-L1; [5])	Kd (RhPD-L1; [6])
Z17748: maturated PD-L1 binding Z variant (VDAKYAKERNAAAYEILYLPNLTQSQKWAFIWKLDDDPSQSSELLSEAKKLNDSQAPK; Engineered PD-L1 binding polypeptide)	63 °C	1.1e-09 M	1.7e+06 M⁻¹ s⁻¹	0.00057 s⁻¹	3.4e-10 M	4.5e-10 M	1.8e+06 M⁻¹ s⁻¹	0.00051 s⁻¹	–	–
Z17825: maturated PD-L1 binding Z variant (VDAKYAKERNLAAYEILYLPNLTNAQKWAFIWKLDDDPSQSSELLSEAKKLNDSQAPK; Engineered PD-L1 binding polypeptide)	60 °C	1.6e-10 M	2e+06 M⁻¹ s⁻¹	0.00047 s⁻¹	2.4e-10 M	2.5e-10 M	1.9e+06 M⁻¹ s⁻¹	0.00039 s⁻¹	2.1e-10 M	1.2e-09 M
Z17911: maturated PD-L1 binding Z variant (VDAKYAKERNNAAYEILYLPNLTNAQKWAFIWKLDDDPSQSSELLSEAKKLNDSQAPK; Engineered PD-L1 binding polypeptide)	59 °C	5.7e-10 M	2.3e+06 M⁻¹ s⁻¹	0.00049 s⁻¹	2.1e-10 M	3.6e-10 M	2.1e+06 M⁻¹ s⁻¹	0.00042 s⁻¹	2e-10 M	2.2e-09 M
Z17964: maturated PD-L1 binding Z variant (VDAKYAKERNAAAYEILYLPNLTNAQKWAFIWKLDDDPSQSSELLSEAKKLNDSQAPK; Engineered PD-L1 binding polypeptide)	62 °C	8.9e-09 M	2.1e+06 M⁻¹ s⁻¹	0.00043 s⁻¹	2.1e-10 M	3e-10 M	3.4e+06 M⁻¹ s⁻¹	0.00038 s⁻¹	1.1e-10 M	2e-09 M
Z17978: maturated PD-L1 binding Z variant (VDAKYAKERNEAAYEILYLPNLTQSQKWAFIWKLDDDPSQSSELLSEAKKLNDSQAPK; Engineered PD-L1 binding polypeptide)	59 °C	6.2e-10 M	–	–	–	4.5e-10 M	–	–	–	1e-09 M
Z18048: maturated PD-L1 binding Z variant (VDAKYAKERNSAAYEILYLPNLTNAQKWAFIWKLDDDPSQSSELLSEAKKLNDSQAPK; Engineered PD-L1 binding polypeptide)	60 °C	1.5e-10 M	1.9e+06 M⁻¹ s⁻¹	0.00044 s⁻¹	2.3e-10 M	3.5e-10 M	1.6e+06 M⁻¹ s⁻¹	0.00038 s⁻¹	2.4e-10 M	1.8e-09 M
Z18064: maturated PD-L1 binding Z variant (VDAKYAKERNKAAYEILYLPNLTNAQKWAFIWKLDDDPSQSSELLSEAKKLNDSQAPK; Engineered PD-L1 binding polypeptide)	62 °C	3.9e-10 M	3.5e+06 M⁻¹ s⁻¹	0.00043 s⁻¹	1.3e-10 M	1.3e-10 M	3.5e+06 M⁻¹ s⁻¹	0.00034 s⁻¹	9.6e-11 M	1.5e-09 M
Z18074: maturated PD-L1 binding Z variant (VDAKYAKERNQAAFEILYLPNLTNAQKWAFIWKLDDDPSQSSELLSEAKKLNDSQAPK; Engineered PD-L1 binding polypeptide)	62 °C	3.1e-10 M	2e+06 M⁻¹ s⁻¹	0.00054 s⁻¹	2.7e-10 M	3.6e-10 M	1.7e+06 M⁻¹ s⁻¹	0.00046 s⁻¹	2.7e-10 M	2.9e-09 M
Z18090: maturated PD-L1 binding Z variant (VDAKYAKERNDAAYEILYLPNLTNQQKWAFIWKLADDPSQSSELLSEAKKLNDSQAPK; Engineered PD-L1 binding polypeptide)	68 °C	6.7e-10 M	–	–	–	5.1e-10 M	–	–	–	2.3e-09 M
Z18233: maturated PD-L1 binding Z variant (VDAKYAKERNTAAQEILYLPNLTQGQKWAFIWKLDDDPSQSSELLSEAKKLNDSQAPK; Engineered PD-L1 binding polypeptide)	57 °C	1.5e-10 M	–	–	–	7.2e-10 M	–	–	–	4.4e-09 M
